Laboratory results: PubChem BioAssay AID1851 (National Center for Advancing Translational Sciences (NCATS), 2009)
The hits were mostly taken out for another list; the other results follow. Inconclusive results are not listed. The source made the active and inactive calls. The call rests on the fitted dose curve; in most records, active means well fitted curve in the direction sought with a large enough effect; inconclusive means small, poorly fitted or top-dose-only effect, or effect the other way; inactive means no such curve, though single readings can be large or run the other way.
On the % scale 0 is the no-effect control and ±100 the full control effect.

Each molecule was assayed against Cytochrome P450 1A2 (Homo sapiens) (UniProt P05177) (assay: Cytochrome panel assay with activity outcomes). Conditions: recombinant CYP, pro-luciferin dealkylation, luminescence, p450-cyp1a2; at 25.6 µM (top of the series).
Chain of UniProt P05177 (P05177 whole entry, looked up): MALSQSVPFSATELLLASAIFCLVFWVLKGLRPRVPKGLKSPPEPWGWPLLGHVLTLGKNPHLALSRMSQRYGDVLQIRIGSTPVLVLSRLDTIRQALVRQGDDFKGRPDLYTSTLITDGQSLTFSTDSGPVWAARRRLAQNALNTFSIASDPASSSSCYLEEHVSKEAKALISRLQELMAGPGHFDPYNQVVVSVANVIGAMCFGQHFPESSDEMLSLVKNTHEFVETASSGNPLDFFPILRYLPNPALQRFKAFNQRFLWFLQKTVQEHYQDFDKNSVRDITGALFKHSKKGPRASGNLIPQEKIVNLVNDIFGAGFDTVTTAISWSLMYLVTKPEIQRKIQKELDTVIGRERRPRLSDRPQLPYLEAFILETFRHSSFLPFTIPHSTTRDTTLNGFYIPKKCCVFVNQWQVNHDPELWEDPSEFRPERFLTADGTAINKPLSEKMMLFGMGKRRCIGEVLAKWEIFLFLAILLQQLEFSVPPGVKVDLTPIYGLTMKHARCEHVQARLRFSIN
In the case of `CC(=O)[C@@H]1CC[C@H]2[C@H]3CC[C@H]4C[C@@H](O)CC[C@]4(C)[C@@H]3C(=O)C[C@@]12C`, the activity, negative = inhibition was inactive: -16.7%.
